The supplement of paper PMC8728848
Some of the results follow.

What was measured:
Assay in all cases: glycan array binding signal (z-score within array); higher = stronger binding
Conditions in all cases: glycan notation: IUPAC condensed, linker removed
[1] = molecular target: Fuc(a1-2)[GalNAc(a1-3)]Gal(b1-4)[Fuc(a1-3)]GlcNAc
In short: (§1)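 The Consortium for Functional Glycomics database supplied 3228 glycan arrays, of which those lacking an available protein sequence were dropped. The binding signal, a within-array Z-score, was averaged across arrays of the same protein sequence and across linkers. Negative scores can be read as non-binding.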

[2] = molecular target: Fuc(a1-2)[GalNAc(a1-4)]Gal(b1-4)GlcNAc
In short: as §1

[3] = molecular target: Fuc(a1-2)[GalNAc(b1-3)]Gal
In short: as §1

Fuc(a1-3)GlcNAc = molecular target: Fuc(a1-3)GlcNAc
In short: as §1

[4] = molecular target: Fuc(a1-3)[Gal(b1-4)]Glc6S
In short: as §1

[5] = molecular target: Fuc(a1-3)[Gal(b1-4)]GlcNAc
In short: as §1

[6] = molecular target: Fuc(a1-3)[Gal(b1-4)]GlcNAc(b1-2)Man(a1-3)[Fuc(a1-3)[Gal(b1-4)]GlcNAc(b1-2)Man(a1-6)]Man(b1-4)GlcNAc(b1-4)GlcNAc
In short: as §1

[7] = molecular target: Fuc(a1-3)[Gal(b1-4)]GlcNAc(b1-2)Man(a1-6)[Gal(b1-4)GlcNAc(b1-2)Man(a1-3)]Man(b1-4)GlcNAc(b1-4)GlcNAc
In short: as §1

[8] = molecular target: Fuc(a1-3)[Gal(b1-4)]GlcNAc(b1-3)Gal(b1-3)[Fuc(a1-4)]GlcNAc
In short: as §1

[9] = molecular target: Fuc(a1-3)[Gal(b1-4)]GlcNAc(b1-4)Gal(b1-4)[Fuc(a1-3)]GlcNAc
In short: as §1

[10] = molecular target: Fuc(a1-3)[Gal(b1-4)]GlcNAc(b1-4)Gal(b1-4)[Fuc(a1-3)]GlcNAc(b1-4)Gal(b1-4)[Fuc(a1-3)]GlcNAc
In short: as §1

[11] = molecular target: Fuc(a1-3)[Gal(b1-4)]GlcNAc6S
In short: as §1

[12] = molecular target: Fuc(a1-3)[Gal3S(b1-4)]Glc6S
In short: as §1

[13] = molecular target: Fuc(a1-3)[Gal3S(b1-4)]GlcNAc
In short: as §1

[14] = molecular target: Fuc(a1-3)[Gal3S(b1-4)]GlcNAc6S
In short: as §1

[15] = molecular target: Fuc(a1-3)[GalNAc(b1-4)]GlcNAc
In short: as §1

Fuc(a1-4)GlcNAc = molecular target: Fuc(a1-4)GlcNAc
In short: as §1

Fuc(b1-3)GlcNAc = molecular target: Fuc(b1-3)GlcNAc
In short: as §1

Gal(a1-2)Gal = molecular target: Gal(a1-2)Gal
In short: as §1

Gal(a1-3)Gal = molecular target: Gal(a1-3)Gal
In short: as §1

Gal(a1-3)Gal(b1-3)GlcNAc = molecular target: Gal(a1-3)Gal(b1-3)GlcNAc
In short: as §1

Gal(a1-3)Gal(b1-4)Glc = molecular target: Gal(a1-3)Gal(b1-4)Glc
In short: as §1

Gal(a1-3)Gal(b1-4)GlcNAc = molecular target: Gal(a1-3)Gal(b1-4)GlcNAc
In short: as §1

[16] = molecular target: Gal(a1-3)Gal(b1-4)[Fuc(a1-3)]GlcNAc
In short: as §1

Gal(a1-3)GalNAc = molecular target: Gal(a1-3)GalNAc
In short: as §1

[17] = molecular target: Gal(a1-3)[Gal(a1-4)]Gal(b1-4)GlcNAc
In short: as §1

Gal(a1-4)Gal(b1-4)Glc = molecular target: Gal(a1-4)Gal(b1-4)Glc
In short: as §1

Gal(a1-4)Gal(b1-4)GlcNAc = molecular target: Gal(a1-4)Gal(b1-4)GlcNAc
In short: as §1

Gal(a1-4)GlcNAc = molecular target: Gal(a1-4)GlcNAc
In short: as §1

Gal(a1-6)Glc = molecular target: Gal(a1-6)Glc
In short: as §1

B1: P-Selectin (Homo sapiens), P16109 (protein)
chain: MANCQIAILYQRFQRVVFGISQLLCFSALISELTNQKEVAAWTYHYSTKAYSWNISRKYCQNRYTDLVAIQNKNEIDYLNKVLPYYSSYYWIGIRKNNKTWTWVGTKKALTNEAENWADNEPNNKRNNEDCVEIYIKSPSAPGKWNDEHCLKKKHALCYTASCQDMSCSKQGECLETIGNYTCSCYPGFYGPECEYVRECGELELPQHVLMNCSHPLGNFSFNSQCSFHCTDGYQVNGPSKLECLASGIWTNKPPQCLAAQCPPLKIPERGNMTCLHSAKAFQHQSSCSFSCEEGFALVGPEVVQCTASGVWTAPAPVCKAVQCQHLEAPSEGTMDCVHPLTAFAYGSSCKFECQPGYRVRGLDMLRCIDSGHWSAPLPTCEAISCEPLESPVHGSMDCSPSLRAFQYDTNCSFRCAEGFMLRGADIVRCDNLGQWTAPAPVCQALQCQDLPVPNEARVNCSHPFGAFRYQSVCSFTCNEGLLLVGASVLQCLATGNWNSVPPECQAIPCTPLLSPQNGTMTCVQPLGSSSYKSTCQFICDEGYSLSGPERLDCTRSGRWTDSPPMCEAIKCPELFAPEQGSLDCSDTRGEFNVGSTCHFSCDNGFKLEGPNNVECTTSGRWSATPPTCKGIASLPTPGLQCPALTTPGQGTMYCRHHPGTFGFNTTCYFGCNAGFTLIGDSTLSCRPSGQWTAVTPACRAVKCSELHVNKPIAMNCSNLWGNFSYGSICSFHCLEGQLLNGSAQTACQENGHWSTTVPTCQAGPLTIQEASTSITAYKSEGESAEFSFPLNLGEESLQGELRWKAEKAPSSQSWITFSLKNQKVSVQKSTSNPKFQLSETLPLTLQIPQVSLQFAGSGNLTLTLDRGILYQEVNLVVMKVTQPDSNTLTCEVMGPTSPKMRLILKQENQEARVSRQEKVIQVQAPEAGVWQCLLSEGEEVKMDSKIQVLSKGLNSGGGSGGGTGGGDLAPQMLRELQETNAALQDVRELLRQQVKEITFLKNTVMECDACGLDRNLPPLAPLGPHPETLVKVKDAEDQLGARVGYIELDLNSGKILESFRPEERFPMMSTFKVLLCGAVLSRIDAGQEQLGRRIHYSQNDLVEYSPVTEKHLTDGMTVRELCSAAITMSDNTAANLLLTTIGGPKELTAFLHNMGDHVTRLDRWEPELNEAIPNDERDTTMPVAMATTLRKLLTGELLTLASRQQLIDWMEADKVAGPLLRSALPAGWFIADKSGAGERGSRGIIAALGPDGKPSRIVVIYTTGSQATMDERNRQIAEIGASLIKHWGPDYKDHDGDYKDHDIDYKDDDDKGPHHHHHH
[1]
  glycan array binding signal (z-score): 0.749
[2]
  glycan array binding signal (z-score): -0.222
[3]
  glycan array binding signal (z-score): 0.099
Fuc(a1-3)GlcNAc
  glycan array binding signal (z-score): -0.438
[4]
  glycan array binding signal (z-score): 0.039
[5]
  glycan array binding signal (z-score): -0.195
[6]
  glycan array binding signal (z-score): -0.157
[7]
  glycan array binding signal (z-score): -0.533
[8]
  glycan array binding signal (z-score): -0.252
[9]
  glycan array binding signal (z-score): -0.287
[10]
  glycan array binding signal (z-score): -0.461
[11]
  glycan array binding signal (z-score): -0.008
[12]
  glycan array binding signal (z-score): 0.611
[13]
  glycan array binding signal (z-score): -0.026
[14]
  glycan array binding signal (z-score): 1.4
[15]
  glycan array binding signal (z-score): -0.262
Fuc(a1-4)GlcNAc
  glycan array binding signal (z-score): -0.307
Fuc(b1-3)GlcNAc
  glycan array binding signal (z-score): -0.377
Gal(a1-2)Gal
  glycan array binding signal (z-score): -0.189
Gal(a1-3)Gal
  glycan array binding signal (z-score): -0.179
Gal(a1-3)Gal(b1-3)GlcNAc
  glycan array binding signal (z-score): -0.405
Gal(a1-3)Gal(b1-4)Glc
  glycan array binding signal (z-score): 0.321
Gal(a1-3)Gal(b1-4)GlcNAc
  glycan array binding signal (z-score): -0.39
[16]
  glycan array binding signal (z-score): -0.336
Gal(a1-3)GalNAc
  glycan array binding signal (z-score): -0.071
[17]
  glycan array binding signal (z-score): -0.514
Gal(a1-4)Gal(b1-4)Glc
  glycan array binding signal (z-score): -0.252
Gal(a1-4)Gal(b1-4)GlcNAc
  glycan array binding signal (z-score): -0.285
Gal(a1-4)GlcNAc
  glycan array binding signal (z-score): -0.061
Gal(a1-6)Glc
  glycan array binding signal (z-score): -0.187
